Experimental data from publication PMC6919601, “Identification of Plasmodium dipeptidyl aminopeptidase allosteric inhibitors by high throughput screening” (PLoS ONE, 2019).
Several values for one entry are separate records, joined by “and”; a condition that tells them apart may be missing. Equal entries are not always repeated. About 230 (0.21%) of roughly 110,000 compounds showed an effect of 50% or more. The list shows a part of the results.

target: DPAP1 (Plasmodium falciparum, UniProt Q8IIJ9); assay: primary screen, percent inhibition; read by cleavage of a fluorogenic dipeptide substrate; higher = more effect of the substance; set-up: species or system P. falciparum D10 trophozoite lysates; single well
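Also: 30 min substrate incubation versus DMSO and 10 µM JCP410 controls.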

Chain of DPAP1 (Q8IIJ9 whole entry, looked up): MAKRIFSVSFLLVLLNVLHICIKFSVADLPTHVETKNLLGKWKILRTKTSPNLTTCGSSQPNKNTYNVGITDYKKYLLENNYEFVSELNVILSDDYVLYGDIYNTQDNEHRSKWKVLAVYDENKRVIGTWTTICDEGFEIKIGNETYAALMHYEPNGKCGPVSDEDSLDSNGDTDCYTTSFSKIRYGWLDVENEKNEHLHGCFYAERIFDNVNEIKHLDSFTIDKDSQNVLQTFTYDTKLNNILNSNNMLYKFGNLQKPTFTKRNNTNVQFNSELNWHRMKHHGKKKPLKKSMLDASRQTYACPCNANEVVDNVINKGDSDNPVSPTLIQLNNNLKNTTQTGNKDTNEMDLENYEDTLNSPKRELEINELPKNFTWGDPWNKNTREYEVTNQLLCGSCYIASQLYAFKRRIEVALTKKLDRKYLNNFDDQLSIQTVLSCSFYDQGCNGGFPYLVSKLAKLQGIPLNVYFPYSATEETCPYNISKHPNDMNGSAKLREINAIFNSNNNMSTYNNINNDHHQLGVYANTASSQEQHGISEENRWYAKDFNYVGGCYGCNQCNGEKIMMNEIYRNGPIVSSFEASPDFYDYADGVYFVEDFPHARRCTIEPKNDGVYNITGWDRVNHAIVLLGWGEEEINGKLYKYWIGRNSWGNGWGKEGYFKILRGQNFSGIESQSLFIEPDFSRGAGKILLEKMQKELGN

SMILES | % Inhibition @ 10 uM
CCOc1ccc(CCNc2nc3ccc(C)cc3n3cnnc23)cc1OCC | 2.6%
CC1CCCC(NC(=O)C2c3ccccc3C(=O)N2Cc2ccc3c(c2)OCO3)C1C (centres unmarked) | -1.34%
COC(=O)c1cccc(-c2ccc(/C=C3\Sc4ccccc4C3=O)o2)c1 | -2.26%
CN(C)C(=O)c1ccccc1C(=O)N(C)C | -5.36%
Cc1ccc(S(=O)Cc2ccc(C(=O)NCCc3ccc(Cl)cc3)o2)cc1 (centres unmarked) | 0.458%
CCOC(=O)C(=O)Nc1sc(C(=O)NC2CCCC2)c(C)c1C(=O)OCC | 3.47%
CCOC(=O)c1c(NC(=S)NCc2ccccc2)sc2c1CC(C)(C)OC2 | 7.73%
O=C(NCc1ccc(F)cc1)C1c2ccccc2Oc2ccccc21 | -3.49%
O=C(COc1ccc(Br)cc1)Nc1ccc(S(=O)(=O)N2CCc3ccccc32)cc1 | -2.02%
CC(C)N(Cc1ccccc1)C(=O)c1cccc([N+](=O)[O-])c1 | -0.856%
CC(C)(C)c1cc(N/C(=N\S(=O)(=O)c2ccc(Br)cc2)c2ccccc2)no1 | -3.33%
Oc1nc2c(-c3ccccc3)nnn2c2ccccc12 | 4.02%
O=C(Nc1cccc(Cl)c1)Nc1cc(Cl)ccc1Cl | -0.127%
O=C(NC(c1ccccc1)c1ccccc1)C1CCN(c2cnccn2)CC1 | -2.71%
O=C(/C=C/c1ccccc1)N1CCN(C/C=C/c2ccccc2)CC1 | 1.48%
Cc1cc(NC(=O)CSc2cn(CCNC(=O)c3ccc(F)cc3)c3ccccc23)no1 | -0.631%
O=Nc1c(O)[nH]c2ccc([N+](=O)[O-])cc12 | 1.42%
Cc1ccccc1C(=O)Nc1sc2c(c1C(=O)N1CCCC1)CCCC2 | -2.29%
COc1ccc(NC(=O)C2CC(=O)N=C(Nc3ccc(C)cc3)S2)c(OC)c1 (centres unmarked) | -4.01%
COc1ccc(OC)c(NC(=O)CSc2ncnc3[nH]cnc23)c1 | 5.49%
COc1ccccc1C1(c2ccc(O)cc2)CCCC1 | -0.233%
COc1ccc(C2=C/C(=C3\c4ccccc4-c4ncccc43)C(=O)O2)cc1 | 14.4%
CCCOC(=O)c1c(N)sc2c1CCCCC2 | 30.9%
COc1ccccc1NS(=O)(=O)c1ccc(N)cc1 | -4.71%
CC(C)(C)OC(=O)NC1CCN(C(=O)NC2CCCCC2)CC1 | -1.68%
COc1ccccc1CN(C(C)=O)C1CC(C)(C)N(C(C)=O)C(C)(C)C1 | 5.38%

SMILES | % Inhibition @ 10 uM
O=C(Cn1cccc1C(=O)c1ccccc1)NCc1cccc(Cl)c1 | 2.76%
O=C(O)c1cccc(NC(=O)c2cccc(S(=O)(=O)NCc3ccccc3)c2)c1 | -1.91%
CC(C)OCCCNC(=O)c1cc(O)nc2ccc(Br)cc12 | -1.79%
Clc1ccccc1N1CCN(Cc2cc(Br)cs2)CC1 | 3.16%
CC(C)=CCN(C)CCc1ccccn1 | 3.24%
CCCc1[nH]nc2c1C(c1ccc(NC(C)=O)cc1)C(C#N)=C(N)O2 (centres unmarked) | -0.105%
COc1ccc(N2C(=O)C(Cl)=C(Nc3cccc(C)c3C)C2=O)cc1 | 3.19%
CC(C)C[C@H](NC(=O)OCc1ccccc1)C(=O)NC1(C#N)CCC(C)CC1 (some centres unmarked) | -1.41%
O=C(/C=C/c1ccc(N2CCOCC2)o1)c1ccc(Br)cc1 | 2.8%
COc1cc(-c2cc(C(F)(F)F)n3ncc(C(=O)O)c3n2)cc(OC)c1OC | 5.12%
Cc1ccc(NC(=O)C2CC(=O)N(c3ccccc3)C2)c(C)c1 (centres unmarked) | 1.34%
CC1CN(Cc2ccc3c(c2)OCO3)CC(C)O1 (centres unmarked) | -0.636%
Cc1ccc(C)c(OCCCCCCc2c(C)n[nH]c2C)c1 | -2.12%
CC(C)NCCN1C(=O)c2ccccc2C(C(=O)O)C1c1cccs1 (centres unmarked) | -2.9%
O=C(NC(Cc1c[nH]c2ccccc12)C(=O)O)c1ccc(F)cc1 (centres unmarked) | 10.2%
C#CC(CCN1CCCCC1)(OC)c1ccccc1 (centres unmarked) | -3.93%
CCOC(=O)N1CCC(NC(=O)C2CCN(c3nc(-c4ccc(OC)cc4)no3)CC2)CC1 | 1.96%
COc1ccc(Br)cc1/C=C1\N=C(c2cc(OC)c(OC)c(OC)c2)OC1=O | -3.33%
Cc1cc(C)n2c(nc3ccccc32)c1C(=O)O | -4.68% and 0.331%
CC(C(=O)Nc1nc(-c2ccccc2)cs1)N1C(=O)c2ccccc2C1=O (centres unmarked) | -6.6%
Cc1ccc(S(=O)(=O)N(C)CCCc2nc3ccccc3[nH]2)cc1 | -6.55%
Cn1ncc(Cl)c(Oc2ccccc2)c1=O | 3.85%
NS(=O)(=O)c1ccc(NC(=O)c2cc(Cl)ccc2Cl)cc1 | 19.1%
COc1ccc(-c2ccc(CCC(=O)O)cc2)cc1 | 4.03%
CCCCNC(=O)CCc1nnc2n(CC(C)C)c(=O)c3ccccc3n12 | 0.981%
Cc1ccccc1C1C=C(c2ccccc2OC(F)F)Nc2ncnn21 (centres unmarked) | 0.219%

SMILES | % Inhibition @ 10 uM
Cc1cccnc1NC(=O)C1CCCN(c2ncnc3c2nc2n3CCCCC2)C1 (centres unmarked) | 4.39%
CC1CCCC(C)N1C(=O)c1cccc2c1-c1ccccc1C2=O (centres unmarked) | 2.17%
CN(C)CCNC(=O)c1cnn(-c2ccccc2)c1-n1cccc1 | -1.58%
COc1cc(CN2CCN(Cc3ccccc3C)CC2)cc(OC)c1OC | -10.8%
COCC(C)NCc1ccc(OC)c(OC)c1 (centres unmarked) | -3.39%
C=CCNC(=O)CN(c1cc(Cl)cc(Cl)c1)S(=O)(=O)c1ccccc1 | -6.75%
Cc1cccc(-c2nnn3c2nc(NC2CCCC2)c2ccccc23)c1 | 2.04%
Cc1ccc(/C=C2\N=C(c3ccccc3F)OC2=O)o1 | 4.77%
O=C1NC2(CCNCC2)N=C1c1ccc(F)cc1 | -0.326%
CCN(CC)C(=O)c1sc(NC(=O)C2CC2)c(C(N)=O)c1C | 14.6%
CCc1cc2c(cc3c(=O)n(CC(=O)NCc4ccccn4)ncn32)s1 | -5.32%
FC(F)(F)c1cccc(CN2CCN(c3ccccc3)CC2)c1 | -0.192%
CCOC(=O)C1=C(N)OC2=C(C(=O)CCC2)C1c1ccc(OCC)cc1 (centres unmarked) | -4.18%
CCc1nnc2sc(-c3cccs3)nn12 | -2.84%
COc1ccc(-c2c3c(nc4sc(C(=O)N5CCOCC5)c(N)c24)CC(C)(C)CC3=O)cc1 | -0.278%
Cc1nc2c(C(=O)NCCCN(Cc3ccccc3)C(C)C)cnn2c(C)c1Cc1ccccc1 | -5.92%
Cc1ccc(CCNC(=O)CSCc2ccc(C)cc2)cc1 | 3.79%
CCn1ncc(C2=NOC(C(=O)NCc3ccccn3)C2)c1C (centres unmarked) | -8.58%
COc1ccc(OC)c(C2=C/C(=C/c3cccnc3)C(=O)O2)c1 | 1.72%
CCOCCCNC(=O)C1CCCN(c2nnc(-n3cccc3)s2)C1 (centres unmarked) | -4.04%
CC(C)CNC(=O)c1ccccc1NC(=O)CSCc1ccccc1Cl | 6.29%
COc1ccc(S(=O)(=O)N2CCn3c(nc4ccccc43)C2)cc1 | -1.08%
CCOc1ccc(C2c3c(oc4ccccc4c3=O)C(=O)N2CCCN2CCOCC2)cc1OCC (centres unmarked) | 2.31%
O=C(c1sc2ccccc2c1Cl)N1CCc2ccccc2C1 | -1.96%
CCOC(=O)c1c(NC(=O)NCc2cccn2Cc2ccccc2)sc2c1CCCC2 | 5.09%
COc1ccc(Oc2nc3ccccn3c(=O)c2/C=C(\C#N)C(=O)NC2CCCCC2)cc1 | 4.06%

SMILES | % Inhibition @ 10 uM
COc1cccc2c1Oc1nc(-c3ccccc3C)nc(O)c1C2 | -2.84%
COc1ccc(COCC(O)CN2CCCCC2)cc1OC (centres unmarked) | -2.55%
Cc1cc(-c2ccccc2)nc2cc(C(=O)Nc3ccc(Cl)cc3)nn12 | -1.32%
O=C(c1ccccc1)N1CCN(CN2CCN(C(=O)c3ccccc3)CC2)CC1 | 5.85%
CCOc1ccccc1CN(C)CCc1ccccn1 | -9.24%
O=C1CCC(=O)N1c1ccc(-c2ccc(N3C(=O)CCC3=O)cc2)cc1 | -4.52%
O=[N+]([O-])c1ccc(NCCc2ccccc2)c([N+](=O)[O-])c1 | 3%
N#CC1=C(N)Nc2ncnn2C1c1ccc(Cl)cc1 (centres unmarked) | 1.91%
CC1=C(C)CC2C(=O)N(c3ccc(N(C)C)cc3)C(=O)C2C1 (centres unmarked) | -2.71%
CN1CCN(CC(O)COc2ccc(C34CC5CC(CC(C5)C3)C4)cc2)CC1 (centres unmarked) | -2.55%
COc1ccc(Br)cc1CNC(=O)c1oc2c(c1C)-c1n[nH]cc1CC2 | 3.87%
Cc1cc(O)nc2nn(-c3ccccc3)cc12 | -7.42%
O=C(O)c1ccc(N2C(=O)CC(N3CCN(c4ncccn4)CC3)C2=O)cc1 (centres unmarked) | 3.21%
Cn1cccc1Cc1nnc(SCC(=O)NC2CCCCC2)n1CCc1ccccc1 | -2.19%
CC(=O)C(C(C)=O)=C(N)N1CCN(c2ccccc2)CC1 | -6.51%
CCCCNC(=O)CSc1nc(NCc2ccccc2)c2ccccc2n1 | -5.68%
COC(=O)c1ccc(OCC2c3cc(OC)c(OC)cc3CCN2C(C)=O)cc1 (centres unmarked) | 0.759%
COC(=O)c1cc2c(s1)CN(C1CCCc3ccccc31)C2 (centres unmarked) | -0.406%
Cc1n[nH]c(C)c1CCc1nc2c3ccccc3nc(SCC(=O)c3ccc(F)cc3)n2n1 | 1.24%
CCN1CCN(CCCNC(=O)c2ccc(CS(=O)c3ccc(Br)cc3)o2)CC1 (centres unmarked) | -2.15%
Cc1cccc(C(=O)N2CCCCCC2)c1 | -0.41%
CS(=O)(=O)C1=C(N)C(=O)N(c2ccccc2)C1c1ccccc1 (centres unmarked) | -2.16%
COc1ccc(C2NC(C(=O)O)Cc3c2[nH]c2ccccc32)cc1 (centres unmarked) | 1.29%
